Laboratory results reported in PubChem BioAssay (NCI).
Values joined by “and” are separate entries in the source; they are usually repeats but may differ in a detail not shown here. Identical values can stand only once.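 Assay format: 96-well plates, 48-hour exposure. Here, GI50 denotes the concentration required for 50% inhibition of growth. TGI denotes the concentration required for complete inhibition of growth.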 Square brackets hold non-standard residues; d marks the D form. Peptide text beside a SMILES is read from it. pGlu = O=C1CC[CH](C(=O)O)N1; Thz = O=C(O)[CH]1CSCN1

These molecules were tested on NCI-H322M lung (assay: NCI tumour cell line growth inhibition, 48 h).

SMILES | TGI | GI50
COC(=O)c1ccc(NCc2cc(OC)ccc2OC)cc1 | > 100 µM | –
OC1NC2Nc3ccccc3NC2NC1O (configuration not stated) | > 100 µM | –
COC(=O)c1cc2c(c(C(=O)OC)c1)CCC2 | > 100 µM | –
CC(C)(C)C(=O)N1C(C(=O)O)Cc2ccccc2[C@@H]1Cc1ccccc1 (some centres not stated) | > 100 µM | –
O=C1c2ccccc2C(=O)N1CCc1ncc(-c2ccccc2)[nH]1 | > 100 µM | –
COc1ccc(C(=O)C2CCC(C(=O)O)C2)cc1 (configuration not stated) | > 100 µM | –
O=C1C2CCN(CC2)C1CN1CCOCC1 (configuration not stated) | 30.2 µM | –
COc1ccc(/C=C/c2cc(OC)c(OC(C)=O)c(OC)c2)cc1 | > 100 µM | –
CCOC(=O)c1c(N)sc2c1CC(C)CC2 (configuration not stated) | > 100 µM | –
O=S(=O)(N=C1C(Cl)=C(Cl)C(=NS(=O)(=O)c2ccccc2)C(Cl)=C1Cl)c1ccccc1 | 55.1 µM | 20.6 µM
C#C[C@]1(O)CC[C@H]2[C@@H]3CCC4=C/C(=N\OCCN5CCCCC5)CC[C@]4(C)[C@H]3CC[C@@]21C | 28 µM | –
Nc1ncnc2c1ncn2[C@H]1C=C[C@@H](NO)C1 | > 100 µM | –
COc1ccc(Br)cc1NC(=O)Nc1cccc2c1ccn2Cc1ccnc(N)c1 | 45.5 µM and > 10 µM | 11.3 µM and 9.88 µM
O=[N+]([O-])c1ccc(-c2csc(N=Nc3c(O)[nH]c4ccccc34)n2)cc1 | > 100 µM | –
CO/C=C(/C(=O)OC)[C@@H]1C[C@@H]1c1ccc2ccccc2c1 | > 100 µM | –
COC(=O)C1=C(C)NC(=O)N2[C@@H](CCOCc3ccccc3)CC[C@@H]12 | > 50 µM | –
COc1ccc(/C=C2\N=C(N3CCCC(CO)C3)NC2=O)cc1 (configuration not stated) | > 100 µM | –
COc1cc(CCC[P+](c2ccccc2)(c2ccccc2)c2ccccc2)c(OC)c2c1OCO2 | 29.1 µM | 3.18 µM
COc1ccc2c(c1)CCC1C2CC[C@@]2(C)C1CC[C@@H]2NC(=O)Cc1ccc(O)c(O)c1 (some centres not stated) | 39.4 µM | 18.9 µM
CN(C)Cc1cc(Cl)c(O)c(CN(C)C)c1 | > 100 µM | –
Cc1ccc(S(=O)(=O)ON2C(=O)c3cccc4cc([N+](=O)[O-])cc(c34)C2=O)cc1 | > 100 µM | –
Cc1cc2c(F)c(Oc3ncnc(Nc4ccc(N5C[C@@H](C)N[C@@H](C)C5)cc4)c3C#N)cc(F)c2[nH]1 | 9.65 µM | 2.66 µM
CC(=O)OC12C(C)=C(C)C(=O)N1c1ccccc1N2C(C)=O (configuration not stated) | > 100 µM | –
Cc1ccc2nc3ccccc3c(C3C4C(=O)N(c5ccc(F)cc5)C(=O)C4ON3C(C(N)=O)c3ccccc3)c2c1 (configuration not stated) | > 100 µM | –
COC1OC2COC1(OCc1ccccc1)C1OC(C)(C)OC21 (configuration not stated) | > 100 µM | –

SMILES | TGI | GI50
CC(C)(C)c1ccc2c(c1)OP1(Oc3c(Cl)cc(Cl)c4cccnc34)(O2)Oc2ccc(C(C)(C)C)cc2O1 | 26.1 µM | –
Cc1ccc(CNc2ccc3nc(CCC4CCCCC4)[nH]c3c2)cc1 | 75.6 µM | 2.97 µM
O=S(=O)(O)c1ccc(N=Nc2ccccc2)cc1 | > 100 µM | –
CC(NC1=NCCO1)c1ccccc1Cl (configuration not stated) | > 100 µM | –
Cc1cc(OCc2nnc3n2S(=O)(=O)c2ccccc2N3C)ccc1Cl | > 100 µM | –
O=C1CCC(C(=O)N2CSCC2C(=O)O)N1 (configuration not stated) ([pGlu]-[Thz]-OH; configuration not given here) | > 100 µM | –
CCN(CC)CCN(CC)CC.CCN(CC)CCN(CC)CC.[Cu+2].[Cu+2].[O-][Cl+3]([O-])([O-])[O-].[OH3+].[OH3+] | 35.2 µM | 18.8 µM
COc1ccccc1C#Cc1ccccc1C#Cc1ccc(OCCCCCCOc2ccccc2C#Cc2ccccc2C#Cc2ccccc2OC)cc1 | > 100 µM | > 100 µM
O=c1[nH]c(Nc2ccc(Br)c(C(F)(F)F)c2)nc2nc[nH]c12 | > 100 µM | –
O=C1c2ccccc2-c2c3c(cc4ccnc1c24)OCO3 | 39.5 µM and > 100 µM | –
O=S1(=O)c2ccccc2N(O)C2=NCCN21 | > 100 µM | –
NS(=O)(=O)c1ccc(NC(=O)N/N=C/c2ccccc2[N+](=O)[O-])cc1 | > 100 µM | –
CCC[CH2][Sn](=[O])[CH2]CCC | > 50 µM | > 50 µM
O=C(O)c1nc2cc(Cl)ccc2[nH]c1=O | > 100 µM | –
O=C(Cc1ccc2ccccc2c1)NCc1ccc(C(=O)NCCc2ccccc2)cc1 | > 100 µM | –
COc1ccc2cc(-c3cnc4nonc4n3)ccc2c1 | > 100 µM | 5.38 µM
CC(C)(C)OC(=O)C1C(=O)NC(=O)CC1CC(OCc1ccccc1)C(OCc1ccccc1)C(COCc1ccccc1)OCc1ccccc1 (configuration not stated) | > 100 µM | > 100 µM and 49.5 µM
Cc1nc(-c2ccccc2)cn2c1nc1ccccc12 | 91.6 µM | –
CCCCSC1=N/C(=C\c2ccccc2O)C(=O)N1 | > 100 µM | –
CCCCCCCCCCCCSC(=S)c1c(C)[nH]n(-c2ccccc2)c1=O | 48.6 µM | –
COC(=O)C(CNC(=O)/C=C/c1ccc(OC)c(OC)c1)NC(=O)/C=C/c1ccc(OC)c(OC)c1 (configuration not stated) | > 100 µM | –
CCOP(=O)(CC(=O)C1CC1)OCC | > 100 µM | –
COc1cc(-n2ccnc2-c2ccc3ccccc3c2)cc(OC)c1OC | > 100 µM | 0.47 µM
COc1ccc(/[N+]([O-])=C/c2ccc(OC(=S)S)c(OC)c2)cc1 | > 100 µM | –
CCOC(=O)C12CCC(=O)N1N(C)c1ncccc1N2 (configuration not stated) | > 100 µM | –
